Source: US20260209301A1 (LIFEARC, published 2026)

T1: human GalR2 (human, UniProt O43603 1-387)
T1 sequence (looked up): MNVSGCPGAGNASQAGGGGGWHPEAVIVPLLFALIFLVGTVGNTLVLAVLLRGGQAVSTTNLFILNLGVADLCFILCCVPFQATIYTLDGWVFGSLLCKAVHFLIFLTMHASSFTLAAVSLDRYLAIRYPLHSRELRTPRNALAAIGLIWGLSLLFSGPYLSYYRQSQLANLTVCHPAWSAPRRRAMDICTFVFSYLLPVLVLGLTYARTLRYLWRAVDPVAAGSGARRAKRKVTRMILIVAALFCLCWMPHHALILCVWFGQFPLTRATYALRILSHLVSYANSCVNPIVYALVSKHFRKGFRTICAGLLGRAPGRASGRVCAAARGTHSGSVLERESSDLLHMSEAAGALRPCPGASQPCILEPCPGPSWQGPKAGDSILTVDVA

T2: human GalR1 (human, UniProt P47211 1-349)
T2 sequence (looked up): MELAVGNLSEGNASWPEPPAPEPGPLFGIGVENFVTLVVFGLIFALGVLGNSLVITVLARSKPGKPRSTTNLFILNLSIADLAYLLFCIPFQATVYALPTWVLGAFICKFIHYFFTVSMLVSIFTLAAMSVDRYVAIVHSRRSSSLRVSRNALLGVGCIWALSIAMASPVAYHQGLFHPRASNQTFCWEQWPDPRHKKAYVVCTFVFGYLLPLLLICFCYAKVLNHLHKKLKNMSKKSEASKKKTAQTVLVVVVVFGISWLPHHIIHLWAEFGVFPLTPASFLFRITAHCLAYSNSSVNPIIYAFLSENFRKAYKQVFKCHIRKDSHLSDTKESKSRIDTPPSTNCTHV

T3: mouse GalR2 (Mus musculus, UniProt O88854 1-371)
T3 sequence (looked up): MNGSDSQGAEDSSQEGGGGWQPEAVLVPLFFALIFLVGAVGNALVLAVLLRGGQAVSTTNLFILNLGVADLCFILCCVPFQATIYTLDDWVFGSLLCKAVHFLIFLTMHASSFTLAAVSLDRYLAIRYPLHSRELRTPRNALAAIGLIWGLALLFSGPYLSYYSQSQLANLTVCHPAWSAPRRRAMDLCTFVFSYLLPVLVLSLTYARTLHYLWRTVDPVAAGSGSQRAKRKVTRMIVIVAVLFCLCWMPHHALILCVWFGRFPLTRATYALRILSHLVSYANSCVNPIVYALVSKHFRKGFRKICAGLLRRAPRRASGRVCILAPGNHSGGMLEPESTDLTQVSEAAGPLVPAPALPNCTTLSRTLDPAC

T4: rat GalR2 (Rattus rattus, UniProt O08726 1-372)
T4 sequence (looked up): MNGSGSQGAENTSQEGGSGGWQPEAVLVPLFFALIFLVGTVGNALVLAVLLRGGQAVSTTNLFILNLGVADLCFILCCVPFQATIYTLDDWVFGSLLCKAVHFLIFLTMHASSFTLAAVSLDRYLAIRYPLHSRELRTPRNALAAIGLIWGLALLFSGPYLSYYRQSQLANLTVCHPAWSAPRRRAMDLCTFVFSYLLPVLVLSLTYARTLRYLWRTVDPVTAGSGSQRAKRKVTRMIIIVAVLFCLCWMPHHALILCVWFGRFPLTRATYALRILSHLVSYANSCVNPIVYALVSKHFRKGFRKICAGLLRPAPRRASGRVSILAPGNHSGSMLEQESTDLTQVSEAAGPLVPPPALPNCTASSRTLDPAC

T5: cynomolgus GalR2 (Macaca fascicularis, UniProt A0A2K5WWW1 1-386)
T5 sequence: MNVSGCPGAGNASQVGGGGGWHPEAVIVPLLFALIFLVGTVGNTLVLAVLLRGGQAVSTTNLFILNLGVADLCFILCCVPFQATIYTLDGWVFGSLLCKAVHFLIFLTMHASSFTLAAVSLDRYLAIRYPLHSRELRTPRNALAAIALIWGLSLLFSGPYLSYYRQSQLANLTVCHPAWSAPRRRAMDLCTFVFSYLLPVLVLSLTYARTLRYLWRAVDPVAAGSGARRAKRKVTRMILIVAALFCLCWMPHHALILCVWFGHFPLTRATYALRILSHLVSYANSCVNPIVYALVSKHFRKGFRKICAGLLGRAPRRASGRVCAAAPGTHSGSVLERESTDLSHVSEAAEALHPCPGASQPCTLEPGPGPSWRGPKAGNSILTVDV

B1: Gal2-30FC (Fc fusion)
chain: WTLNSAGYLLGPHAVGNHRSFSDKNGLTSAEAAAKEAAAKAL[human IgG1 Fc with C220S (EU numbers) not spelt out]
notes: also called Gal2-30FC Mature chimeric protein
B2: Gal2-13FC PA4 (Fc fusion)
chain: WTLNSAGYLLGPPAPAPAPALEPKSSDKTHTCPPCTRUE[human IgG1 Fc not spelt out]
B3: Gal2-12FC (Fc fusion)
chain: WTLNSAGYLLGAEAAAKEAAAKAL[human IgG1 Fc with C220S (EU numbers) not spelt out]
notes: also called Gal2-12FC Mature chimeric protein
B4: Gal2-18FC (Fc fusion)
chain: WTLNSAGYLLGPHAVGNAEAAAKEAAAKALEPKSSDKTHTCPPCTRUE[human IgG1 Fc not spelt out]
B5: Gal2-13FC GGS2 (Fc fusion)
chain: WTLNSAGYLLGPGGSGGSLEPKSSDKTHTCPPCTRUE[human IgG1 Fc not spelt out]
B6: Gal1-30FC (Fc fusion)
chain: GWTLNSAGYLLGPHAVGNHRSFSDKNGLTSAEAAAKEAAAKALEPKSSDKTHTCPPCTRUE[human IgG1 Fc not spelt out]
B7: Gal2-14FC (Fc fusion)
chain: WTLNSAGYLLGPHAEAAAKEAAAKALEPKSSDKTHTCPPCTRUE[human IgG1 Fc not spelt out]
B8: Gal2-13FC GGS4 (Fc fusion)
chain: WTLNSAGYLLGPGGSGGSGGSGGSLEPKSSDKTHTCPPCTRUE[human IgG1 Fc not spelt out]
B9: Gal2-13FC (Fc fusion)
chain: WTLNSAGYLLGPAEAAAKEAAAKAL[human IgG1 Fc with C220S (EU numbers) not spelt out]
notes: also called Gal2-13FC Mature chimeric protein; FC2-13
B10: Gal2-13FC GGS (Fc fusion)
chain: WTLNSAGYLLGPGGSLEPKSSDKTHTCPPCTRUE[human IgG1 Fc not spelt out]
B11: Gal2-17FC (Fc fusion)
chain: WTLNSAGYLLGPHAVGAEAAAKEAAAKALEPKSSDKTHTCPPCTRUE[human IgG1 Fc not spelt out]
B12: Gal2-16FC (Fc fusion)
chain: WTLNSAGYLLGPHAVAEAAAKEAAAKALEPKSSDKTHTCPPCTRUE[human IgG1 Fc not spelt out]
B13: Gal2-24FC (Fc fusion)
chain: WTLNSAGYLLGPHAVGNHRSFSDAEAAAKEAAAKALEPKSSDKTHTCPPCTRUE[human IgG1 Fc not spelt out]
B14: Gal2-15FC (Fc fusion)
chain: WTLNSAGYLLGPHAAEAAAKEAAAKALEPKSSDKTHTCPPCTRUE[human IgG1 Fc not spelt out]

Key:
human GalR2 [1] = molecular target: T1, human GalR2; test: cell-based or functional assay
human GalR2 [2] = molecular target: T1, human GalR2; test: cell-based or functional assay; remark: listed apart in the source
human GalR2 [3] = molecular target: T1, human GalR2; test: cell-based or functional assay; remark: listed apart in the source
human GalR2 [4] = molecular target: T1, human GalR2; test: radioligand competition: displacement of [125I]-galanin from membranes of cells overexpressing GalR2
human GalR1 [5] = molecular target: T2, human GalR1; test: cell-based or functional assay
human GalR2 [6] = molecular target: T1, human GalR2; test: cell-based or functional assay; remark: listed apart in the source
human GalR1 [7] = molecular target: T2, human GalR1; test: cell-based or functional assay; remark: listed apart in the source
mouse GalR2 = molecular target: T3, mouse GalR2; test: cell-based or functional assay
rat GalR2 = molecular target: T4, rat GalR2; test: cell-based or functional assay
cynomolgus GalR2 = molecular target: T5, cynomolgus GalR2; test: cell-based or functional assay

Row | Binder | Beta Arrestin pEC50 (human GalR2 [1]) [pEC50] | Calcium pEC50 (human GalR2 [1]) [pEC50] | calcium assay activity (quantity not given) (human GalR2 [3]) | calcium assay activity (quantity not given) (human GalR2 [6]) | also measured
1 | B1 | 7.3 | 6.6 | 6.8 | – | luciferase reporter gene assay (NFAT-RE), activity; quantity not named (human GalR2 [2]): 59 nM; pIC50 (human GalR2 [4]): 7.55 pIC50
2 | B2 | – | – | – | 6.8 | cAMP assay activity (quantity not given) (human GalR1 [5]): 6.1
3 | B3 | 7.6 | 6.3 | 6.6 | – | luciferase reporter gene assay (NFAT-RE), activity; quantity not named (human GalR2 [2]): 320 nM; pIC50 (human GalR2 [4]): 7.24 pIC50
4 | B4 | 7.3 | 6.7 | 6.7 | – | –
5 | B5 | – | – | – | 6.4 | cAMP assay activity (quantity not given) (human GalR1 [5]): 5.5
6 | B6 | 5.7 | 6.4 | – | – | Beta Arrestin IA (%) (human GalR1 [7]): 88.1%; Beta Arrestin pEC50 (human GalR1 [7]): 5.72 pEC50; cAMP IA (%) (human GalR1 [7]): 93.4%; cAMP pEC50 (human GalR1 [7]): 8.4 pEC50
7 | B7 | – | – | 6.7 | – | –
8 | B8 | – | – | – | 6.2 | cAMP assay activity (quantity not given) (human GalR1 [5]): 5.3
9 | B9 | 6.7 | 6.3 | 6.4 | 6.4 | luciferase reporter gene assay (NFAT-RE), activity; quantity not named (human GalR2 [2]): 312 nM; calcium assay activity (quantity not given) (mouse GalR2): 6.4; calcium assay activity (quantity not given) (rat GalR2): 6.5; calcium assay activity (quantity not given) (cynomolgus GalR2): 7.7; pIC50 (human GalR2 [4]): 7.35 pIC50
10 | B10 | – | – | – | 6.4 | cAMP assay activity (quantity not given) (human GalR1 [5]): 5.3
11 | B11 | – | – | 6.6 | – | –
12 | B12 | – | – | 6.9 | – | –
13 | B13 | 7.6 | 6.9 | 6.9 | – | –
14 | B14 | – | – | 6.8 | – | –

Where two headings read alike, the source gives them in different places.
